# From PubChem BioAssay AID602310 (National Center for Advancing Translational Sciences (NCATS), 2012)
# About 310 (0.076%) of roughly 410,000 compounds were called active. The shares of active, inactive and inconclusive entries below differ from those in the screen. Calls follow the shape of the dose curve; as a rule, active = well fitted curve in the direction sought with a large enough effect; inconclusive = small, poorly fitted or top-dose-only effect; inactive = flat fitted curve, though single readings scatter. Where the call is inconclusive, the potency comes from a doubtful curve fit.
# Target: DNA dC->dU-editing enzyme APOBEC-3G (Homo sapiens) (UniProt Q9HC16)
# Test: qHTS for Inhibitors of Vif-A3G Interactions: qHTS; also: nearly all actives have a fitted effect of over 60% in size;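 as to activity, negative = active: hits raise eYFP signal because A3G escapes Vif-driven loss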
# Details: HeLa A3G-eYFP + Vif (tagged APOBEC3G with the HIV-1 protein that degrades it), YFP fluorescence, overnight; series mostly up to 46.1 µM; activity, negative = active: at the top concentration
# Method in brief: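 HeLa cells stably expressing Vif and C-terminally eYFP-tagged A3G, seeded overnight at 37 deg C, then exposed to compound by pintool overnight at 37 deg C. Rise in yellow fluorescence (Ex 488/Em 500-530, Acumen) marks blocked Vif-driven A3G degradation.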
# % is scaled to controls: 0 for no effect and ±100 for the full control effect; potency is read from the fitted curve at half-maximal effect; tags tell the direction and shape of the fitted curve.
# Chain of UniProt Q9HC16 (Q9HC16 whole entry, looked up): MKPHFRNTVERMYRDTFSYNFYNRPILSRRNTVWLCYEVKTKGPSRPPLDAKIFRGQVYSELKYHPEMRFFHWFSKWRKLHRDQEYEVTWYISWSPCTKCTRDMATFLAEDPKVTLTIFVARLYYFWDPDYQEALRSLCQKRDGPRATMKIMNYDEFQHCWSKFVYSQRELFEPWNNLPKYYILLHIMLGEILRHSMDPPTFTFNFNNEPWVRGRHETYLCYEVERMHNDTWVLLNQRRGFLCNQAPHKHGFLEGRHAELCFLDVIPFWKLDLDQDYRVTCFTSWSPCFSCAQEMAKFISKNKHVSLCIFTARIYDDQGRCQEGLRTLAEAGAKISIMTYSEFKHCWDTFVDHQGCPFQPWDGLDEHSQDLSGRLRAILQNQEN
Compound,Potency,"activity, negative = active"
Cc1cc(N/N=C/c2ccc([N+](=O)[O-])o2)nc2ccccc12,active: 11.2 µM,–
Cc1cc(C)nc(/N=C(\N)Nc2ccc(OCc3ccccc3)cc2)n1,–,inactive: -12.2%
Cc1scc(-c2n[nH]c(=S)n2C(C)c2ccccc2)c1C (stereo not given),"inconclusive: 35.5 µM [inhibitor, single point]",–
Cc1ccc(N(C)S(=O)(=O)c2ccc(-c3cnc(C4CC4)o3)cc2)cc1,"inconclusive: 1.12 µM [inhibitor, full curve, poor fit]",–
Cc1nc([N+](=O)[O-])c(Sc2nc3ccc([N+](=O)[O-])cc3[nH]2)n1Cc1ccccc1,"inconclusive: 35.5 µM [inhibitor, single point]",–
CN(CCC#N)C(=O)COC(=O)c1c2c(nc3ccccc13)/C(=C\c1ccco1)CC2,–,inactive: -7.33%
COc1cccc(C(=O)C(C#N)=C(SC)SC)c1,"inconclusive: 10 µM [inhibitor, partial curve, poor fit]",–
CCCCN(CCCC)S(=O)(=O)c1ccc(C(=O)Nc2sc3c(c2C(N)=O)CCN(CC)C3)cc1,"inconclusive: 35.5 µM [inhibitor, single point]",–
CCOC(=O)C1(c2ccccc2)CCCNC1=O (stereo not given),–,inactive: 1.18%
COc1ccc(/C=C2\SC(N3CCc4ccccc4C3)=NC2=O)cc1OC,"inconclusive: 35.5 µM [inhibitor, single point]",–
CO/N=C\CC(=O)Nc1ccc(Cl)cc1Cl,"inconclusive: 7.08 µM [inhibitor, partial curve, poor fit]",–
CCC(=O)NC(C)c1cc(Cl)c2cccnc2c1O (stereo not given),"inconclusive: 35.5 µM [inhibitor, single point]",–
COc1cc(C2C3=C(COC3=O)Oc3cc4c(cc32)OCO4)ccc1O (stereo not given),"inconclusive: 0.794 µM [inhibitor, full curve, poor fit]",–
Cc1ccc(NC(=O)CSc2ncc3c(n2)-c2ccccc2N(C)S3(=O)=O)c(Cl)c1,"inconclusive: 0.891 µM [inhibitor, full curve, poor fit]",–
COc1ccc(CN(C)c2ccc(-c3nc(C)no3)cc2[N+](=O)[O-])cc1,–,inactive: -10.4%
C=C(C)C1CC=C(C)/C(=N/NC(=O)COc2ccccc2C)C1 (stereo not given),"inconclusive: 35.5 µM [inhibitor, single point]",–
COc1ccc(/C=N/NC(=O)C2c3ccccc3-c3ccccc32)cc1,"inconclusive: 12.6 µM [inhibitor, partial curve, poor fit]",–
COc1cc(N2CCCC2)c(OC)cc1/C=C1/NC(=S)NC1=O,"inconclusive: 6.31 µM [inhibitor, partial curve, poor fit]",–
N#Cc1c(C(F)(F)F)cc(-c2ccco2)nc1SCc1ccncc1,"inconclusive: 20 µM [inhibitor, single point]",–
COc1ccc(C(=O)Nc2cc3cc(Cl)ccc3oc2=O)cc1OC,"inconclusive: 0.562 µM [inhibitor, full curve, poor fit]",–
COc1ccccc1CNC(=O)CCCn1c(=O)c2ccccc2n(CC(=O)Nc2ccc(C)cc2Cl)c1=O,"inconclusive: 28.2 µM [inhibitor, single point]",–
C=CCN(c1ccccc1)S(=O)(=O)c1ccc2c(c1)oc(=O)n2C,"inconclusive: 10 µM [inhibitor, partial curve, poor fit]",–

Compound,Potency,"activity, negative = active"
CN1CCC(=NNC(=O)c2cc(-c3ccc(Cl)cc3)n[nH]2)CC1,"inconclusive: 28.2 µM [inhibitor, single point]",–
Cc1ccc(N=Nc2[nH]c3ccccc3c2O)cc1,"inconclusive: 17.8 µM [inhibitor, single point]",–
Cc1ccc(S(=O)(=O)Nc2cc(Br)cc3cccnc23)cc1,"inconclusive: 7.08 µM [inhibitor, partial curve]",–
Oc1ccc(O)c(Cc2nc3ccccc3s2)c1,"inconclusive: 35.5 µM [inhibitor, single point]",–
Cc1nn(-c2ccccc2)c2c1CC(=O)Nc1ccccc1-2,"inconclusive: 0.562 µM [inhibitor, full curve, poor fit]",–
CNc1nc(N/N=C/c2cc3c(cc2[N+](=O)[O-])OCO3)nc(Nc2ccccc2)n1,"inconclusive: 22.4 µM [inhibitor, single point]",–
N#C/C(=C/c1cccn1-c1cccc(C(=O)O)c1)c1ccc(Cl)cc1,–,inactive: 2.96%
COc1ccc(C2=NN(C(=O)COc3ncnc4ccccc34)C(c3ccco3)C2)cc1 (stereo not given),–,inactive: -10.4%
CC(=O)N1CCc2c(sc(NC(=O)C3CC3)c2-c2nc3ccccc3s2)C1,"inconclusive: 31.6 µM [inhibitor, single point]",–
C=C1C(=O)O[C@@H]2[C@H]1CC[C@H](C)[C@]1(O)CCC(=O)[C@@]21C,"inconclusive: 20 µM [inhibitor, single point]",–
CCOc1cc2c(c3c1C(c1ccccc1)N(S(=O)(=O)c1ccc(C)cc1)C3)C(=O)C=CC2=O (stereo not given),"inconclusive: 3.16 µM [inhibitor, partial curve, poor fit]",–
CC(Oc1ccc(Br)cc1)C(=O)Nc1nc(-c2ccccn2)cs1 (stereo not given),"inconclusive: 35.5 µM [inhibitor, single point]",–
Brc1ccc2c(c1)C(c1cccnc1)=NNC(c1cccs1)=N2,"inconclusive: 7.94 µM [inhibitor, partial curve, poor fit]",–
CC(C)SC1=NC(C)(C)C=C(/C=C/c2ccc(Cl)cc2Cl)N1,"inconclusive: 22.4 µM [inhibitor, single point]",–
CSc1ccccc1C(=O)Nc1ncn[nH]1,–,inactive: -1.06%
CCOC(=O)C(C)Oc1cccc2c(=O)n(CC(=O)NCc3ccc4c(c3)OCO4)ccc12 (stereo not given),"inconclusive: 1.58 µM [inhibitor, full curve, poor fit]",–
CCN(CC)c1ccc(C(=O)Nc2cccc(F)c2)cc1,"inconclusive: 11.2 µM [inhibitor, partial curve]",–
Cc1cccc2sc(N(Cc3cccnc3)C(=O)CCS(=O)(=O)c3ccccc3)nc12,"inconclusive: 17.8 µM [inhibitor, single point]",–
COc1ccc(-c2cc(C(F)(F)F)nc(S(C)(=O)=O)n2)cc1OC,"inconclusive: 35.5 µM [inhibitor, single point]",–
C#CCSc1nccc(-c2nn(-c3ccc(C)cc3)ccc2=O)n1,"inconclusive: 11.2 µM [inhibitor, partial curve, poor fit]",–
CCc1cc(/C=C/c2ccnc3ccccc23)ccc1N(C)C,"inconclusive: 14.1 µM [inhibitor, partial curve, poor fit]",–
Cc1cc(C)cc(NC(=O)C2C3C=CC4(O3)C2C(=O)N(CCN2CCCCC2)C4C(=O)NC2CCCCC2)c1 (stereo not given),–,inactive: 1.54%

Compound,Potency,"activity, negative = active"
O=C(NCCc1ccccc1)C1Cc2c(-c3ccccc3)ccnc2O1 (stereo not given),"inconclusive: 15.8 µM [inhibitor, single point]",–
O=C(/C=C/Sc1ncn[nH]1)c1ccc(Cl)cc1,"inconclusive: 10 µM [inhibitor, partial curve, poor fit]",–
Cc1ccccc1N1C(=O)CC2(CCCC2)CC1=O,–,inactive: 0.661%
COc1ccc(C2c3c(-c4ccccc4O)n[nH]c3C(=O)N2CCc2ccccc2)cc1 (stereo not given),"inconclusive: 11.2 µM [inhibitor, partial curve]",–
COc1ccc2c(c1)c(=O)c(C(=O)c1ccc(C)cc1)cn2Cc1ccccc1F,–,inactive: -25.5%
CCC1CCCCN1CCCNC(=O)c1ccc2c(c1)sc1nc(-c3ccc(F)cc3)cn12 (stereo not given),"inconclusive: 22.4 µM [inhibitor, single point]",–
O=C(Oc1coc(CSc2ncccn2)cc1=O)c1cccc([N+](=O)[O-])c1,–,inactive: -0.418%
COc1ccccc1-c1c(C#N)c(N)nc2c1CCc1ccccc1-2,"inconclusive: 2.82 µM [inhibitor, full curve, poor fit]",–
CCC(C)(C)C(=O)O[C@H]1C[C@@H](C)C=C2C=C[C@H](C)[C@H](CC[C@@H]3C[C@@H](O)CC(=O)O3)[C@H]21,"inconclusive: 3.55 µM [inhibitor, partial curve, poor fit]",–
O=[N+]([O-])/C=C/c1ccc2c(ccn2Cc2ccccc2)c1,"inconclusive: 3.98 µM [inhibitor, single point]",–
Cn1cccc1/C=N/NC(=O)c1sc2ccccc2c1Cl,"inconclusive: 31.6 µM [inhibitor, single point]",–
Cc1ccccc1C(=O)Nc1cccc(C(=O)N/N=C/c2ccc3c(c2)OCO3)c1,"inconclusive: 7.94 µM [inhibitor, partial curve]",–
COC(=O)COc1cc(Br)c(/C=C2/SC(=O)N(CC(=O)N3CCCC3)C2=O)cc1OC,–,inactive: 0.311%
COc1cccc(NC(=O)c2nc(S(C)(=O)=O)ncc2Cl)c1,"inconclusive: 17.8 µM [inhibitor, single point]",–
CCCCn1c(=O)[nH]c2nc3cc(NC(C)=O)ccc3nc2c1=O,–,inactive: 1.24%
O=C1C2=C(Nc3ccccc3SC2c2ccc(Cl)c(Cl)c2)c2ccccc21 (stereo not given),–,inactive: 3.01%
c1ccc(CNc2nc(N3CCOCC3)nc(N3CCOCC3)n2)cc1,–,inactive: -5.25%
O=C(N/N=C/C(Br)=C/c1ccccc1)c1n[nH]c2c1CCC2,"inconclusive: 22.4 µM [inhibitor, single point]",–
CCc1nc(Nc2ccc(O)cc2)c2oc3ccccc3c2n1,"inconclusive: 15.8 µM [inhibitor, single point]",–
Cc1ccc(NC(=O)c2nc(S(=O)(=O)Cc3cccc(C)c3)ncc2Cl)cc1,"inconclusive: 10 µM [inhibitor, partial curve, poor fit]",–
CCn1c(Sc2ccc([N+](=O)[O-])cn2)nnc1-c1ccco1,"inconclusive: 7.08 µM [inhibitor, partial curve, poor fit]",–
